Several values for one entry are separate records, joined by “and”; a condition that tells them apart may be missing. Equal values may be shown once. In all, about 94,000 compounds went through this assay and about 4,000 (4.3%) were called active. The shares of active, inactive and inconclusive entries below differ from those in the screen. Calls follow the shape of the dose curve; as a rule, active = well fitted inhibition curve with a large enough effect; inconclusive = small, poorly fitted or top-dose-only effect; inactive = no such curve, though single readings can be large or run the other way. A potency beside an inconclusive call is a rough fit, not a confirmed value.
Assay: Cytotoxic Profiling in NIH 3T3 Cell Line of Diverse Libraries Using Quantitative High-Throughput Screening; also: nearly all actives have a fitted effect of over 55% in size
Settings: NIH 3T3 viability, CellTiter-Glo ATP luminescence, 48-72 h; series mostly up to 96.7 µM
In short: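 Luminescent ATP readout (CellTiter-Glo, 10 min RT) after 48 or 72 hr compound exposure of NIH 3T3 cells seeded at 400 cells/well in 1536-well format; quantitative HTS.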
Potency is read from the fitted curve at half-maximal effect; tags tell the direction and shape of the fitted curve.

For `CC1CCN(c2ccc(-c3cccc(NC(=O)NC(C)C)c3)nn2)CC1`, which Potency is on record?
The Potency was “inactive”.

With `CCc1cccc(OCC(=O)c2ccc3c(c2)N(CC(=O)NCCc2ccccc2)C(=O)CO3)c1` as the compound, how does the Potency read?
The Potency was inconclusive: 50.1 µM [inhibitor, partial curve, poor fit].

Which Potency does the source give for `NC(=O)[C@@H]1CCCN1C(=O)c1ccc2oc(-c3cccc(F)c3)nc2c1` here?
The Potency was inconclusive: 56.2 µM [inhibitor, partial curve, poor fit].

With `O=C(Cn1nc2c(cc1=O)CCCCC2)N1CCN(Cc2ccccc2)CC1` as the compound, how does the Potency read?
The Potency was “inactive”.

Which Potency does the source give for `O=C1OC[C@@H]2CCN(S(=O)(=O)Cc3ccccc3)Cc3ccc(F)cc3N12` here?
Its Potency is “inactive”.

For `COc1cccc(-c2cc3c(=O)n(CCNC(=O)c4ccc(F)cc4)ccn3n2)c1`, which Potency is on record?
Its Potency is “inactive”.

With `O=C(Cc1ccc(N(Cc2ccc(F)cc2)C(=O)c2ccco2)cc1)NCCc1ccccc1` as the compound, how does the Potency read?
The Potency was inconclusive: 50.1 µM [inhibitor, partial curve, poor fit].

Which Potency does the source give for `CCN(CC)C(=O)CCc1c(C)nn(-c2cccc(C)c2)c1Oc1ccc(F)cc1F` here?
The Potency was active: 35.5 µM.

Which Potency does the source give for `COc1cc(-c2onc(C)c2C(=O)N(C)Cc2ccccc2)cc(OC)c1OC` here?
Its Potency is inconclusive: 44.7 µM [inhibitor, partial curve, poor fit].

For `Cc1ccc(C(=O)Nc2cc(-c3cccnc3)nn2-c2ccccc2)cc1`, which Potency is on record?
Its Potency is inconclusive: 70.8 µM [inhibitor, partial curve, poor fit].

Which Potency does the source give for `O=C(NCCc1ccc(F)cc1)c1cc(-c2cccs2)c2cccn2n1` here?
The Potency was inconclusive: 39.8 µM [inhibitor, partial curve, poor fit].

For `CN1CC2(CCCN(C(=O)c3cn4cc(Cl)ccc4n3)C2)OC1=O` (stereo not drawn), which Potency is on record?
The Potency was “inactive”.

Which Potency does the source give for `Cc1cc(C)c(CNC(=O)c2cc(Nc3ccccc3)cc3ncn(C)c23)c(=O)[nH]1` here?
The Potency was inconclusive: 79.4 µM [inhibitor, partial curve, poor fit].

With `O=C1CCN(C(=O)[C@@H]2CCCN2C(=O)Nc2ccccc2)CCCCCCN1` as the compound, how does the Potency read?
Its Potency is “inactive”.

With `CN1CC(=O)N(c2ccccc2)Cc2c1ncnc2N1CCC(O)CC1` as the compound, how does the Potency read?
The Potency was “inactive”.

Which Potency does the source give for `CN1CC(=O)N(c2ccccc2)Cc2c(NCc3ccc(F)cc3)ncnc21` here?
Its Potency is inconclusive: 44.7 µM [inhibitor, partial curve, poor fit].

Which Potency does the source give for `CN(C)C[C@@H]1CN(S(C)(=O)=O)C[C@H]1NC(=O)c1cccs1` here?
Its Potency is “inactive”.

For `Cn1ccnc1C(O)c1cc2n(n1)CCN(Cc1ccc(CO)o1)C2` (stereo not drawn), which Potency is on record?
Its Potency is “inactive”.

With `CC(C)c1ccc([S+](=O)([O-])c2nnn3c2nc(NC2CC2)c2ccccc23)cc1` as the compound, how does the Potency read?
Its Potency is “inactive”.

Which Potency does the source give for `O=C(c1cc(F)ccc1F)N1CCN(c2cc(-c3ccc(F)cc3)[nH]n2)CC1` here?
Its Potency is inconclusive: 22.4 µM [inhibitor, partial curve].

With `CN1CC(=O)N(C2CCCNCC2)Cc2c1ncnc2N1CCC(C#N)CC1` (stereo not drawn) as the compound, how does the Potency read?
Its Potency is “inactive”.

With `O=C(c1ccccc1)N1CCC2(CC1)NC(=O)N(Cc1ccc(F)cc1)C2=O` as the compound, how does the Potency read?
The Potency was inconclusive: 50.1 µM [inhibitor, partial curve, poor fit].

With `N#Cc1cccc(CN2CCC3(CC2)COCCN3C(=O)OCc2ccccc2)c1` as the compound, how does the Potency read?
The Potency was inconclusive: 4.47 µM [inhibitor, full curve, poor fit].

For `N#Cc1ccc(CN2CC(CNC(=O)Nc3ccccc3)C3(C2)CN(c2ccccc2)C3)cc1` (stereo not drawn), which Potency is on record?
The Potency was inconclusive: 17.8 µM [inhibitor, full curve].

Which Potency does the source give for `COc1ccccc1NC(=O)Cn1c(-c2ccc(F)cc2)nc(C)cc1=O` here?
Its Potency is “inactive”.

For `CN(C)C[C@@H]1CN(c2ccncn2)C[C@H]1NC(=O)Cc1c(F)cccc1Cl`, which Potency is on record?
The Potency was “inactive”.

With `O=C(C1CCCN1C(=O)c1cccc(-c2cccnc2)c1)N1CCOCC1` (stereo not drawn) as the compound, how does the Potency read?
Its Potency is “inactive”.

For `Cn1nc(C2CCN(C(=O)c3cncc(Br)c3)CC2)c2c1CCOC2`, which Potency is on record?
Its Potency is “inactive”.

For `CC(=O)Nc1ccc(CN2CCC3(CC(Cc4ccccc4)=NO3)C2)cc1` (stereo not drawn), which Potency is on record?
Its Potency is “inactive”.

With `COc1ccc(C(=O)N2CCC(N3C(=O)C4(CCCC4)C3c3ccccc3)CC2)cc1` (stereo not drawn) as the compound, how does the Potency read?
The Potency was inconclusive: 50.1 µM [inhibitor, partial curve, poor fit].

With `COc1ccccc1C(=O)NC1CCCN(Cc2cccc(-c3ccc(C)c(Cl)c3)c2)C1` (stereo not drawn) as the compound, how does the Potency read?
The Potency was inconclusive: 39.8 µM [inhibitor, partial curve, poor fit].

For `O=C(Nc1ccc(Cl)cc1)N1CCCN(CCn2nc3n(c2=O)CCCC3)CC1`, which Potency is on record?
The Potency was “inactive”.

Which Potency does the source give for `O=C(NC1CCCC1)c1ccc2c(c1)N(S(=O)(=O)c1ccccc1)CC2` here?
Its Potency is inconclusive: 70.8 µM [inhibitor, single point].

Which Potency does the source give for `CC(C)CCNC(=O)CCC1CCCN(S(=O)(=O)c2cccc(F)c2)C1` (stereo not drawn) here?
Its Potency is inconclusive: 50.1 µM [inhibitor, partial curve, poor fit].

Which Potency does the source give for `Cc1ccc(-c2cccc(CN3CCCC(NC(=O)c4ccc(Cl)nc4)C3)c2)cc1Cl` (stereo not drawn) here?
Its Potency is “inactive”.

Which Potency does the source give for `CN(CCCc1cnn(C)c1)C(=O)[C@H]1CNC[C@@H](C(=O)N2CCOCC2)C1` here?
The Potency was “inactive”.

Which Potency does the source give for `Cc1ccccc1CN1CCc2nc(C(=O)N3CCOCC3)oc2CC1` here?
Its Potency is inconclusive: 79.4 µM [inhibitor, partial curve, poor fit].

With `O=C(NC1CC1)[C@@H]1CN(Cc2ccc(Br)cc2)C[C@H]1CO` as the compound, how does the Potency read?
Its Potency is “inactive”.

For `COc1ccccc1CCN1CCCC(CN(C)C(=O)Cn2cccnc2=O)C1` (stereo not drawn), which Potency is on record?
The Potency was “inactive”.

For `O=C(Nc1ccccc1)O[C@@H]1CO[C@H]2[C@@H]1OC[C@@H]2NC(=O)c1ccc2c(c1)OCO2`, which Potency is on record?
The Potency was inconclusive: 8.91 µM [inhibitor, full curve, poor fit].

Which Potency does the source give for `COc1ccc(Cn2c3c(c(=O)n2Cc2ccccc2)CCN(Cc2cccc(O)c2)C3)cc1` here?
The Potency was inconclusive: 12.6 µM [inhibitor, full curve, poor fit].

For `CCN1CCN(CCCNC(=O)C2N(c3ccc(OC)cc3)C(=O)C23CCCCC3)CC1` (stereo not drawn), which Potency is on record?
The Potency was “inactive”.

Which Potency does the source give for `Cc1cc(C)c([S+](=O)([O-])c2nnn3c2nc(N2CCOCC2)c2ccccc23)c(C)c1` here?
The Potency was inconclusive: 35.5 µM [inhibitor, partial curve].

With `Cc1ccc(S(=O)(=O)Nc2ccc3c(c2)CN(CCc2ccc(F)cc2)C(=O)C(C)O3)cc1F` (stereo not drawn) as the compound, how does the Potency read?
Its Potency is inconclusive: 39.8 µM [inhibitor, partial curve, poor fit].

For `O=C(C1CC1)N1CC(Oc2ccccc2-c2nc(-c3cnccn3)no2)C1`, which Potency is on record?
The Potency was “inactive”.

With `CNC(=O)[C@@H]1CN(C(=O)c2ccc(C)nc2)C[C@H]1CO` as the compound, how does the Potency read?
Its Potency is “inactive”.

With `CN(C)C[C@@H]1CN(C2CCOCC2)C[C@H]1NC(=O)c1n[nH]c2ccccc12` as the compound, how does the Potency read?
Its Potency is “inactive”.

For `Brc1ccc(-c2ccnc3nc(-c4ccco4)nn23)s1`, which Potency is on record?
The Potency was inconclusive: 11.2 µM [inhibitor, full curve, poor fit].

For `CN(C)C(=O)N1CCC(c2nc(CCOc3ccc(F)cc3)no2)C1` (stereo not drawn), which Potency is on record?
The Potency was inconclusive: 44.7 µM [inhibitor, partial curve, poor fit].

With `COc1ccc(C2Cn3cnc(C(=O)N4CCC(C(=O)NCCc5ccccc5)CC4)c3CO2)cc1` (stereo not drawn) as the compound, how does the Potency read?
Its Potency is “inactive”.

For `COCCC(=O)N1CCC2(CC1)CC(N(Cc1ccc(F)cc1)C1CC1)CCO2` (stereo not drawn), which Potency is on record?
Its Potency is “inactive”.

For `CCN1c2cc(C(=O)Nc3ccc(OC(F)(F)F)cc3)ccc2C(=O)N2CCCCCC21` (stereo not drawn), which Potency is on record?
The Potency was active: 25.1 µM.

With `O=C(NC1CCCN(c2cc(-c3ccc(Cl)cc3)[nH]n2)C1)c1cccs1` (stereo not drawn) as the compound, how does the Potency read?
Its Potency is inconclusive: 44.7 µM [inhibitor, partial curve, poor fit].

With `Cc1ccc([S+](=O)([O-])NC2CCN(c3nccc(Nc4ccccc4F)n3)CC2)cc1` as the compound, how does the Potency read?
The Potency was active: 39.8 µM.

Which Potency does the source give for `CC(=O)N1CCC(Cc2ccc(CN(C(=O)c3cccs3)C3CC3)cc2)CC1` here?
The Potency was inconclusive: 22.4 µM [inhibitor, full curve].

For `Cc1cc(C)cc(-c2ccc(CN3CCCC(NC(=O)c4ccccn4)C3)cc2)c1` (stereo not drawn), which Potency is on record?
Its Potency is active: 14.1 µM.

With `O=C(C1CCCCC1)N1CC[C@H](c2nc3ccc(C(F)(F)F)cc3[nH]2)C1` as the compound, how does the Potency read?
The Potency was inconclusive: 100 µM [inhibitor, partial curve, poor fit].

With `CN(Cc1cccc(C(F)(F)F)c1)C(=O)c1ccccc1Cl` as the compound, how does the Potency read?
Its Potency is active: 89.1 µM.

For `COc1cccc([S+](=O)([O-])N2CCC(C(=O)O)(c3ccccc3)CC2)c1`, which Potency is on record?
The Potency was “inactive”.

For `COc1ccc(S(=O)(=O)N2[C@@H]3CC[C@H]2CC(NC(=O)c2ccc(F)cc2)C3)cc1` (stereo partly drawn), which Potency is on record?
The Potency was “inactive”.

With `Cn1ncc2c(C(=O)NCc3ccccn3)cc(-c3cccc(C(F)(F)F)c3)nc21` as the compound, how does the Potency read?
The Potency was inconclusive: 12.6 µM [inhibitor, full curve] and inconclusive: 11.2 µM [inhibitor, full curve, poor fit].

For `COc1ccccc1-c1cc(C(=O)NCc2ccccc2)nn2cnnc12`, which Potency is on record?
Its Potency is inconclusive: 31.6 µM [inhibitor, partial curve, poor fit].

Which Potency does the source give for `O=C(CC1CCCC1)N1C[C@@H](CO)[C@@H]2Oc3c(F)cccc3[C@@H]21` here?
The Potency was inconclusive: 50.1 µM [inhibitor, partial curve, poor fit].

Which Potency does the source give for `COc1ccc(Cl)cc1C(=O)N1CCC(c2n[nH]c(=O)n2-c2ccccc2)CC1` here?
Its Potency is inconclusive: 44.7 µM [inhibitor, partial curve, poor fit].

With `O=C(c1ccc(C(F)(F)F)cc1)N1CCC2(CC1)CC(c1cccc(C(F)(F)F)c1)=NO2` as the compound, how does the Potency read?
The Potency was inconclusive: 31.6 µM [inhibitor, full curve, poor fit].

For `COc1ccc(C(=O)N2CCC3(CC2)NC(=O)N(Cc2ccccc2)C3=O)cc1`, which Potency is on record?
The Potency was “inactive”.

Which Potency does the source give for `COC[C@@]12CN(Cc3ccc(C(=O)O)cc3)C[C@@H]1C(C)(C)COc1ccc(OC)cc12` here?
The Potency was inconclusive: 79.4 µM [inhibitor, partial curve, poor fit].

With `O=C1CCN(S(=O)(=O)c2ccccc2)CCCN(C(=O)c2cc3ccccc3[nH]2)CCN1` as the compound, how does the Potency read?
The Potency was inconclusive: 50.1 µM [inhibitor, partial curve, poor fit].
